This test has as its system CCRF-CEM/VBL100. In words: cells. The procedure: FIG. 1 is a table of IC50 values of epothilones against CCRF-CEM, CCRF-CEM/VBL, and CCRF-CEM/Taxol cell growth. Cell growth inhibition was measured by XTT tetrazonium assay after 72-hour incubation for cell growth, as described previously (Scudiero et al. Cancer Res. 46:4827-4833, 1988; incorporated herein by reference). IC50 values were determined from dose-effect relationship at six or seven concentrations of each drug, by using a computer program (Chou et al. Adv. Enzyme Regul. 22:27-55, 1984; Chou et al. CalcuSyn for Windows (Biosoft, Cambridge, UK), 1997; each of which is incorporated herein by reference) as described earlier (Chou et al. Proc. Natl. Acad. Sci. USA 95:15798-15802, 1998; incorporated herein by reference).
A typical experiment involves culturing cells (e.g., CCRF-CEM) at an initial density of 2-5×10^4 cells per ml. […] For both methods, the absorbance of each well is measured with a microplate reader (EL-340, Bio-Tek, Burlington, Vt.). Each run entails six or seven concentrations of the tested drugs. Dose-effect relationship data are analyzed with the median-effect plot.

Setting [1] is: Homo sapiens, CCRF-CEM, 72 h, read-out: IC50 (μM), CCRF-CEM/VBL100.
Where [2] appears, read: Homo sapiens, CCRF-CEM, 72 h, read-out: IC50, C/VBL100 (μM).
Where [3] appears, read: Homo sapiens, CCRF-CEM, 72 h, read-out: IC50, CCRF-CEM/VBL.
Where [4] appears, read: CCRF-CEM/VBL and CCRF-CEM/Taxol sublines (FIG. 94).
[5] abbreviates: read-out: CCRF-CEM/VBL (IC50 (μM)), XTT assay following 72 h inhibition, Table 1-1.

Structures can show the parent of a compound that is named as a salt. Where two headings read alike, the source gives them in different places.

Regarding `C/C1=C/CC(/C(C)=C/c2csc(C)n2)OC(=O)C[C@H](O)C(C)(C)C(=O)[C@H](C)[C@@H](O)[C@@H](C)CCC1` (some centres unmarked) [Compound 1, 12,13-desoxyepothilone B, reference compound], the IC50 reads like this: under setting [1], 0.014 µM; under setting [2], 0.016 µM; under setting [3], 0.016 µM.

In the case of `C/C(=C\c1csc(C)n1)[C@@H]1C/C=C(/C(F)(F)F)CCC[C@H](C)[C@H](O)[C@@H](C)C(=O)C(C)(C)[C@@H](O)CC(=O)O1` [Compound 2, 26-trifluoro-12,13-desoxyepothilone B], the IC50 under setting [2] stood at 0.08 µM.

For the compound `CC1=C/C[C@@H](/C(C)=C/c2csc(C)n2)OC(=O)C[C@H](O)C(C)(C)C(=O)[C@H](C)[C@@H](O)[C@@H](C)C\C=C\1` [Compound 6, epothilone 490, reference compound], the IC50 (Homo sapiens, CCRF-CEM, 72 h, read-out: CCRF-CEM/VBL (IC50 (μM))) worked out at 0.068 µM.

Turning to `C/C(=C\c1csc(C)n1)[C@@H]1C[C@@H]2O[C@]2(C)CCC[C@H](C)[C@H](O)[C@@H](C)C(=O)C(C)(C)[C@@H](O)CC(=O)N1` [Compound 15-aza-EpoB, reference compound], the “Cross-resistance to vinblastine and paclitaxel” value (“Cross-resistance” below) under setting [4] was “considerable cross-resistance”.

Regarding `C/C(=C\c1csc(C)n1)[C@@H]1C/C=C(/C(F)(F)F)C/C=C/C[C@H](C)[C@H](O)[C@@H](C)C(=O)C(C)(C)[C@@H](O)CC(=O)O1` [Compound 19, 27-F3-[17]ddEpoB], under setting [5], the IC50 amounted to 0.191 µM.

For `C/C1=C/C[C@@H](/C(C)=C/c2csc(C)n2)OC(=O)C[C@H](O)C(C)(C)C(=O)[C@H](C)[C@@H](O)[C@@H](C)/C=C/C1` [Compound 28, trans-9,10-dehydro-12,13-desoxyepothilone B], the “Cross-resistance” value under setting [4] was “not appreciably cross-resistant”. The IC50 under setting [1] stood at 0.0065 µM, the IC50 under setting [2] was 0.0042 µM and the IC50 under setting [3] amounted to 0.0042 µM.

Turning to `C/C(=C\c1csc(C)n1)[C@@H]1C/C=C(/C(F)(F)F)C/C=C/[C@H](C)[C@H](O)[C@@H](C)C(=O)C(C)(C)[C@@H](O)CC(=O)O1` [Compound 29, 26-trifluoro-trans-9,10-dehydro-12,13-desoxyepothilone B], the “Cross-resistance” value was “not appreciably cross-resistant”. Moreover, the IC50 under setting [1] came out at 0.021 µM. For the same compound, the IC50 under setting [2] came out at 0.021 µM.

As to `C/C(=C\c1csc(C)n1)[C@@H]1C[C@@H]2O[C@]2(C)C/C=C/[C@H](C)[C@H](O)[C@@H](C)C(=O)C(C)(C)[C@@H](O)CC(=O)O1` [Compound 49, (E)-9,10-dehydroepothilone B], the “Cross-resistance” value under setting [4] is “not appreciably cross-resistant”. Also, the IC50 under setting [3] came to 0.00032 µM.

Turning to `C/C(=C\c1csc(C)n1)[C@@H]1C[C@H]2O[C@@]2(C)C/C=C/[C@H](C)[C@H](O)[C@@H](C)C(=O)C(C)(C)[C@@H](O)CC(=O)O1` [Compound 50], the IC50 under setting [3] came to 0.0959 µM.

On to `C/C(=C\c1csc(C)n1)[C@@H]1C[C@@H]2O[C@]2(C)CCC[C@H](C)[C@H](O)[C@@H](C)C(=O)C(C)(C)[C@@H](O)CC(=O)O1` [Compound 51, Epothilone B, reference compound], for which the IC50 under setting [3] was 0.0037 µM.

As for `C/C(=C\c1csc(C)n1)[C@@H]1C[C@H]2O[C@@]2(C)CCC[C@H](C)[C@H](O)[C@@H](C)C(=O)C(C)(C)[C@@H](O)CC(=O)O1` [Compound 52], the IC50 under setting [3] worked out at 0.452 µM.

Consider `C/C1=C/C[C@@H](/C(C)=C/c2csc(CO)n2)OC(=O)C[C@H](O)C(C)(C)C(=O)[C@H](C)[C@@H](O)[C@@H](C)/C=C/C1` [Compound 57, 9,10-dehydro-dEpoF], for which the IC50 under setting [1] amounted to 0.0106 µM.

On to `C/C1=C/C[C@@H](/C(C)=C/c2csc(CO)n2)OC(=O)C[C@H](O)C(C)(C)C(=O)[C@H](C)[C@@H](O)[C@@H](C)CCC1` [dEpoF, reference compound], for which the “Cross-resistance” value under setting [4] is “some cross-resistance with vinblastine but not paclitaxel”.

As to `CC[C@]1(O)C[C@@H]2CN(CCc3c([nH]c4ccccc34)[C@@](C(=O)OC)(c3cc4c(cc3OC)N(C)[C@H]3[C@@](O)(C(=O)OC)[C@H](OC(C)=O)[C@]5(CC)C=CCN6CC[C@]43[C@@H]65)C2)C1` [vinblastine, vinblastine sulfate, reference compound], the “Resistance of CCRF-CEM/VBL100 subline” value stood at 720 fold.

On to “[17]ddEpoB [Compound 23, reference compound]”, for which the IC50 under setting [5] is 0.126 µM.

These data come from US7875638B2, “Synthesis of epothilones, intermediates thereto, analogues and uses thereof” (Sloan-Kettering Institute for Cancer Research, priority 2002, dated 2011).
